Assay results published in PubChem BioAssay (Tox21).
Values joined by “and” are separate entries in the source; they are usually repeats but may differ in a detail not shown here. Equal values may be shown once. A structure can be active in one record and inactive in another. Active and inactive are the calls of the source. Unless noted, calls come from the whole dose curve; as a rule, active = well fitted curve in the direction sought with a large enough effect in the repeat runs; inconclusive = weak or mixed curves; inactive = no such curve, though single readings can be large; an effect the other way counts as inactive or inconclusive.

Experiments:
[1] = qHTS assay to identify small molecule antagonists of the androgen receptor (AR) signaling pathway using the MDA cell line - cell viability counter screen (AID 743041; note: nearly all actives have a fitted effect of over 45% in size; for viability change, negative = cytotoxic: % is set by controls: 0 for no effect and ±100 for the full control effect); details: MDA-kb2 viability, CellTiter-Fluor, 16 h, cells co-treated with R1881 androgen agonist; viability change, negative = cytotoxic: at 70.3 µM (top of the series) unless noted
Method in brief: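 In this qHTS counter assay, fluorescence intensity after CellTiter-Fluor addition indicated viability of MDA-kb2 AR-luc cells given compounds and R1881 for 16 h at 37C.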

[2] = qHTS assay to identify small molecule antagonists of the thyroid receptor (TR) signaling pathway - cell viability counter screen (AID 743064); details: GH3.TRE-Luc viability, CellTiter-Fluor, 24 h; activity change, negative = cytotoxic: at 70.3 µM (top of the series) unless noted; note: nearly all actives have a fitted effect of over 50% in size; for activity change, negative = cytotoxic: % is set by controls: 0 for no effect and ±100 for the full control effect
Method in brief: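 Plate GH3.TRE-Luc cells; incubate 4 h at 37 °C; add compound, then T3 to 1 nM final; incubate 23.5 h; add CellTiter-Fluor; incubate 30 min at 37 °C, 5% CO2; read fluorescence.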

[3] = qHTS assay to identify small molecule that activate the aryl hydrocarbon receptor (AhR) signaling pathway - cell viability counter screen (AID 743086); note: nearly all actives have a fitted effect of over 45% in size;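 for viability change, negative = cytotoxic: HepG2 liver cells carrying the AhR DRE luciferase reporter; % is set by controls: 0 for no effect and ±100 for the full control effect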
Method in brief: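 HepG2-AhR-luc (HG2L7.5c1) cells, 4000/well, were preincubated 5 h at 37C, exposed to compound in qHTS format for 24 hr at 37C, then given CellTiter-Fluor for 30 min; viability was read as fluorescence in the reporter wells.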

[4] = qHTS assay to identify small molecule antagonists of the thyroid receptor (TR) signaling pathway (AID 743065); note: nearly all actives have a fitted effect of over 55% in size
Method in brief: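 GH3.TRE-Luc rat pituitary cells carrying two TR response elements driving luciferase were plated for 4 h, given compound plus 1 nM T3 (final), and incubated 23.5 h at 37 C. ONE-Glo luminescence measured reporter inhibition; CellTiter-Fluor fluorescence tracked cytotoxicity.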

[5] = qHTS assay to identify small molecule antagonists of the estrogen receptor alpha (ER-alpha) signaling pathway - cell viability counter screen (AID 743074; calls by dose curve;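 note: HEK293 cells carrying ER-alpha-UAS-bla reporter stimulated with 17beta-estradiol; nearly all actives have a fitted effect of over 45% in size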)
[6] = target: Aryl hydrocarbon receptor (Homo sapiens) (UniProt P35869); test: qHTS assay to identify small molecule that activate the aryl hydrocarbon receptor (AhR) signaling pathway (AID 743085); note: nearly all actives have a fitted effect of over 15% in size
Sequence of UniProt P35869 (P35869 whole entry, looked up): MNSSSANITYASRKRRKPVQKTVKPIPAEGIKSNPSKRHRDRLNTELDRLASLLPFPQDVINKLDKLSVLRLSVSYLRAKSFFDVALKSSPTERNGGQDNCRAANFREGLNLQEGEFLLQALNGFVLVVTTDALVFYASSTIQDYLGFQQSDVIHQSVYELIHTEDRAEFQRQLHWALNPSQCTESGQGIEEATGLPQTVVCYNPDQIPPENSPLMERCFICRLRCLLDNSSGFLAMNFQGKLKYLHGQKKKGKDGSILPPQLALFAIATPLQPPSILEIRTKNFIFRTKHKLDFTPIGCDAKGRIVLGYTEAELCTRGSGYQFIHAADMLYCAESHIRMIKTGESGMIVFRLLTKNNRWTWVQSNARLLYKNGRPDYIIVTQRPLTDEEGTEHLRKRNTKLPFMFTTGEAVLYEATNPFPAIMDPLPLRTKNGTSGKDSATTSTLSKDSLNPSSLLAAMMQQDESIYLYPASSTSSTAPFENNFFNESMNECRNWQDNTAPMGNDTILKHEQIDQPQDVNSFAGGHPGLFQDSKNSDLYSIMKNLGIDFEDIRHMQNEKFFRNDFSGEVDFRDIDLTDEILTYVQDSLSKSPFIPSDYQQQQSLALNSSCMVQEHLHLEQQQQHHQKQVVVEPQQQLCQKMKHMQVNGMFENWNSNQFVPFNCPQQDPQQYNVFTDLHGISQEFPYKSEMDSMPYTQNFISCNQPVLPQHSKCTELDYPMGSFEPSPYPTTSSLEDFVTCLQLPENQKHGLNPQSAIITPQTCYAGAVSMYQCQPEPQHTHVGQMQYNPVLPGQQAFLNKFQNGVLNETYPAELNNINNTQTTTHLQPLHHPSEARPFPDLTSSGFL
Method in brief: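 Steps: seed HepG2-AhR-luc cells; allow 5 h at 37C; pin-transfer test compound or vehicle; incubate 24 h at 37C; add viability dye (30 min, 37C) and read fluorescence; add luciferase substrate (30 min, RT) and read luminescence.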

[7] = system: thyroid hormone receptor (rat, GH3 cells); test: qHTS assay to identify small molecule agonists of the thyroid receptor (TR) signaling pathway (AID 743066; calls by dose curve); details: GH3.TRE-Luc cells, TR agonist luciferase, 24 h; activation: at 83.9 µM (top of the series) unless noted
[8] = target: Estrogen receptor (Homo sapiens) (UniProt P03372); test: qHTS assay to identify small molecule antagonists of the estrogen receptor alpha (ER-alpha) signaling pathway (AID 743069; active = well fitted curve in the direction sought with a large enough effect in the signal ratio in the repeat runs, not every such curve was filed as active; inconclusive = weak or mixed curves, or effect the other way; inactive = no such curve, though single readings can be large or run the other way; the % refers to the signal ratio); details: HEK293 ER-alpha-UAS-bla, beta-lactamase ratio, antagonist mode; activity, negative = inhibition: at 69.4 µM (top of the series) unless noted
Sequence of UniProt P03372 (P03372 whole entry, looked up): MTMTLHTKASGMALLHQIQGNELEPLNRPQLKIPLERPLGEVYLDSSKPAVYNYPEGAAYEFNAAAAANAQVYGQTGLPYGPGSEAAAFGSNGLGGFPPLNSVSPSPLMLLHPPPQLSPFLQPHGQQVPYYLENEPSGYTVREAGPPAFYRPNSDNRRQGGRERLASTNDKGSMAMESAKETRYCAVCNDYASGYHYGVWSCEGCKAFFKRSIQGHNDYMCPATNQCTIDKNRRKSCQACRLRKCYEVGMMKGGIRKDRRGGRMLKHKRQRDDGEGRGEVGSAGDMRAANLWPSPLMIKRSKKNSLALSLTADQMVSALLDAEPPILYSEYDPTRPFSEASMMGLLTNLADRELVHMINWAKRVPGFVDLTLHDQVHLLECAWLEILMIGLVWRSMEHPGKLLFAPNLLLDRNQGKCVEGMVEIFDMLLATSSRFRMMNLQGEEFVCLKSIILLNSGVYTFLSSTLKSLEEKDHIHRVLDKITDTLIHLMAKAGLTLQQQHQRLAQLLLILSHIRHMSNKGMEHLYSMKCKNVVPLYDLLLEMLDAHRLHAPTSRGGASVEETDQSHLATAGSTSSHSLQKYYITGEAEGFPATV
Method in brief: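 A 17beta-estradiol challenge was applied right after compound transfer to ER-alpha-UAS-bla HEK293 cells previously kept in charcoal-stripped serum. Plates stood 18 hr at 37C and 5% CO2; fluorescence was read following 2 hr FRET substrate loading at room temperature.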

[9] = target: Estrogen receptor (Homo sapiens) (UniProt P03372); test: qHTS assay to identify small molecule agonists of the estrogen receptor alpha (ER-alpha) signaling pathway (AID 743075; calls by dose curve;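 note: HEK293 GripTite cells with ER-alpha and UAS-driven beta-lactamase reporter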)
[10] = target: Estrogen receptor (Homo sapiens) (UniProt P03372); test: qHTS assay to identify small molecule agonists of the estrogen receptor alpha (ER-alpha) signaling pathway using the BG1 cell line (AID 743079); details: BG1Luc4E2 cells, ERE-luciferase agonist, 22 h; activation: at 70.3 µM (top of the series) unless noted; note: nearly all actives have a fitted effect of over 20% in size
[11] = qHTS assay to identify small molecule antagonists of the estrogen receptor alpha (ER-alpha) signaling pathway using the BG1 cell line (AID 743080; calls by dose curve;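 note: BG1 cells stimulated with 17beta-estradiol alongside compound; nearly all actives have a fitted effect of over 25% in size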); details: BG1Luc4E2 ERE-luciferase antagonist mode, luminescence; activity change, negative = inhibition: at 70.3 µM (top of the series) unless noted
Method in brief: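 Endogenous full-length ER-alpha in BG1-Luc-4E2 cells drives a stably integrated 4×ERE luciferase gene; compounds were tested against 17beta-estradiol over 21.5 h, with luminescence and multiplexed viability fluorescence recorded.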

[12] = qHTS assay to identify aromatase inhibitors - cell viability counter screen (AID 743084); details: MCF-7 aro ERE viability, CellTiter-Fluor, 24 h; activity change, negative = cytotoxicity: at 70.3 µM (top of the series) unless noted;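 note: cells stimulated with testosterone during compound exposure; nearly all actives have a fitted effect of over 55% in size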
[13] = target: Peroxisome proliferator-activated receptor gamma (Homo sapiens) (UniProt P37231); test: qHTS assay to identify small molecule agonists of the peroxisome proliferator-activated receptor gamma (PPARg) signaling pathway (AID 743094; active = well fitted activation curve with a large enough effect in the signal ratio in the repeat runs, not every such curve was filed as active; inconclusive = weak or mixed curves, or effect the other way; inactive = no such curve, though single readings can be large or run the other way; the % refers to the signal ratio; for activation: % is set by controls: 0 for no effect and ±100 for the full control effect); details: HEK293H PPARg-UAS-bla, beta-lactamase FRET ratio, 17 h; activation: at 57 µM (top of the series) unless noted
Sequence of UniProt P37231 (P37231 whole entry, looked up): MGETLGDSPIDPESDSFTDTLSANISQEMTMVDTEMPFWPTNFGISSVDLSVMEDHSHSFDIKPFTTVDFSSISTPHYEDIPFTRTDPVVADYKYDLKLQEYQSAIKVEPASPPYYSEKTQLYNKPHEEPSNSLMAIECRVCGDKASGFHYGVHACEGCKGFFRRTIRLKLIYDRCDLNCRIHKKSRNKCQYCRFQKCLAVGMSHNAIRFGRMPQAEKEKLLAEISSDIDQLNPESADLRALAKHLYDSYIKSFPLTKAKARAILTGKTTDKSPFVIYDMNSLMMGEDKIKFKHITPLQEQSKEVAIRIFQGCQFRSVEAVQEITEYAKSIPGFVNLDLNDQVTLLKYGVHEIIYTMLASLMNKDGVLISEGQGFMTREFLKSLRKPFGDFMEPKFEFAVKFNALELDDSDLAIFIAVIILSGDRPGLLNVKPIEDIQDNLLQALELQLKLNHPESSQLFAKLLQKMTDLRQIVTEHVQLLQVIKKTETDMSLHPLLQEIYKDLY
Method in brief: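 Agonism was assessed in a beta-lactamase reporter system, HEK293H cells with a stably integrated UAS-bla construct under PPARg control; the 17 h treatment at 37C preceded a 1 h room-temperature FRET substrate read.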

Aromatase (Homo sapiens) = Aromatase (Homo sapiens) (UniProt P11511); test: qHTS assay to identify aromatase inhibitors (AID 743083); details: MCF-7 aro ERE, testosterone-driven ERE luciferase, 24 h; activity, negative = inhibition: at 70.3 µM (top of the series); note: nearly all actives have a fitted effect of over 55% in size
Sequence of UniProt P11511 (P11511 whole entry, looked up): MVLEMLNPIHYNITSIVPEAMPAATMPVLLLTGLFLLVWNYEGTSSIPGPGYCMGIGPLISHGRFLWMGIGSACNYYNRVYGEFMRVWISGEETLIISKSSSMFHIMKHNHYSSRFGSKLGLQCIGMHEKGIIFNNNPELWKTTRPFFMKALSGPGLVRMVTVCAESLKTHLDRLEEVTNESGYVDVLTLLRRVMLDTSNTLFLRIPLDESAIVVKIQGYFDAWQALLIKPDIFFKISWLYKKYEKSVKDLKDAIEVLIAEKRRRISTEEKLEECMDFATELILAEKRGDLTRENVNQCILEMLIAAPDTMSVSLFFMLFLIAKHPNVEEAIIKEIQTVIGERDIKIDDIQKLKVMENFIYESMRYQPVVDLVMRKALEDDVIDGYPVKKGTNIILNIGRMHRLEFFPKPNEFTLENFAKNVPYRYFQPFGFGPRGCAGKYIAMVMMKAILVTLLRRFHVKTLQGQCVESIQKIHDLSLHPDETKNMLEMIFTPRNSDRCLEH
Potency is the fitted concentration of half-maximal effect; tags give direction and shape of the fitted curve or compound fluorescence and quenching.

With `CCCCOC(=O)COC(=O)c1ccccc1C(=O)OCCCC` the Potency [1] was “inactive”, the Potency [2] was “inactive” and the Potency [3] was “inactive”.
In the case of `[Cl][Sb]([Cl])[Cl]`, the Potency [1] is reported as inconclusive: 68.6 µM [cytotoxic, single point], the Potency [4] is reported as inconclusive: 24.3 µM [inhibitor] and the Potency [5] is reported as “inactive”. The Potency [3] was “inactive”.
In the case of `N#CS`, the Potency [1] is reported as inconclusive: 10.9 µM [rising, partial curve, poor fit], the Potency [2] is reported as inconclusive: 10.9 µM [rising, single point] and the Potency [5] is reported as “inactive and inconclusive: 34.8 µM [cytotoxic, partial curve, poor fit]”. For the same molecule, the Potency [6] was inconclusive: 77.2 µM [activator, partial curve, poor fit].
For `CCC(C)(NC(=O)c1cc(Cl)c(C)c(Cl)c1)C(=O)CCl` (stereo unspecified), the Potency [1] was inconclusive: 69 µM [cytotoxic, single point], the Potency [7] was inconclusive: 17.3 µM [inhibitor, partial curve, poor fit] and the Potency [8] was active: 62 µM [inconclusive]. The Potency [5] was inconclusive: 22 µM [rising, partial curve, poor fit], the Potency [9] was inconclusive: 39.1 µM [falling, partial curve] and the Potency [10] was inconclusive: 7.74 µM [activator, full curve]. The Potency [11] was inconclusive: 61.5 µM [rising, partial curve], the Potency [12] was inconclusive: 54.8 µM [cytotoxic, partial curve, poor fit] and the Potency [3] was inconclusive: 77.4 µM [falling, single point]. For the same molecule, the activation [13] was inconclusive: 5.73% [at 78.9 µM].
With `O=P1(N(CCCl)CCCl)NCCCO1` (stereo unspecified) the Potency [1] was “inactive”, the Potency [2] was inconclusive: 19.3 µM [rising, full curve, poor fit] and the Potency [8] was “inactive”. The Potency [5] was inconclusive: 22.1 µM [cytotoxic, single point], the Potency [10] was active: 27.3 µM and the Potency [6] was “inactive”.
In the case of `CC(C)C1(C)N=C(c2nc3ccccc3cc2C(=O)O)NC1=O` (stereo unspecified), the Potency [1] is reported as “inactive”, the Potency [8] is reported as “inactive” and the Potency [9] is reported as inconclusive: 55.4 µM [partial curve, poor fit]. The activation [10] was inconclusive: 12% [phenotype inactive] [at 95 µM] and the activity change, negative = inhibition [11] was inconclusive: -4.53%.
In the case of `N#CC(CCc1ccc(Cl)cc1)(Cn1cncn1)c1ccccc1` (stereo unspecified), the Potency [1] is reported as inconclusive: 68.6 µM [cytotoxic, single point], the Potency [2] is reported as active: 30.6 µM and the Potency [8] is reported as inconclusive: 61.6 µM. The Potency [5] was inconclusive: 54.9 µM [cytotoxic, single point], the Potency [10] was inconclusive: 61.1 µM [inhibitor, partial curve] and the Potency [11] was active: 61.1 µM. For the same molecule, the Potency (Aromatase (Homo sapiens)) was active: 30.6 µM, the Potency [3] was inconclusive: 68.6 µM [falling, single point] and the activation [13] was inconclusive: -14.4%.
For `C=CC(=O)OCC`, the Potency [1] was inconclusive: 27.8 µM [rising, partial curve, poor fit], the Potency [2] was inconclusive: 62.3 µM [rising, partial curve, poor fit] and the Potency [13] was “inactive”.
In the case of `COP(=S)(OC)Oc1nc(Cl)c(Cl)cc1Cl`, the Potency [1] is reported as “inactive”, the Potency [4] is reported as inconclusive: 68.5 µM [inhibitor, single point] and the Potency [8] is reported as inconclusive: 30.9 µM [fluorescent, partial curve, poor fit]. For the same molecule, the Potency [9] was “inactive”, the Potency [6] was inconclusive: 54.4 µM [activator, partial curve] and the Potency [3] was inconclusive: 38.5 µM [rising, partial curve].
For `CNC(=O)Oc1ccc(N(C)C)c(C)c1`, the viability change, negative = cytotoxic [1] was inconclusive: -31.8% [cytotoxic], the Potency [2] was “inactive” and the activation [10] was inconclusive: 0.821% [phenotype inactive]. The Potency [12] was “inactive” and the activation [13] was inconclusive: 2.15%.
In the case of `Cc1cc(C(F)(C(F)(F)F)C(F)(F)F)ccc1NC(=O)c1cccc(I)c1C(=O)NC(C)(C)CS(C)(=O)=O`, the Potency [1] is reported as “inactive”, the Potency [2] is reported as “inactive” and the activity, negative = inhibition [8] is reported as inconclusive: -26.8%. For the same molecule, the Potency [10] was inconclusive: 15.4 µM [inhibitor, partial curve, poor fit].
For `C[C@]12C/C(=C/O)C(=O)C[C@@H]1CC[C@@H]1[C@@H]2CC[C@@]2(C)[C@H]1CC[C@]2(C)O`, the viability change, negative = cytotoxic [1] was inconclusive: -32.7% [cytotoxic] [at 95 µM], the Potency [8] was inconclusive: 2.13 µM [activator, full curve, poor fit] and the Potency [5] was inconclusive: 49.4 µM [cytotoxic, partial curve, poor fit]. The Potency [9] was active: 674 nM [inconclusive] and active: 783 nM [inconclusive], the Potency [11] was inconclusive: 0.133 µM [rising, full curve, poor fit] and the Potency [12] was inconclusive: 61.7 µM [cytotoxic]. For the same molecule, the Potency [13] was inconclusive: 23.9 µM and inconclusive: 17.5 µM [full curve].
